Experimental data: a collection of fitness landscapes (doi:10.1016/j.celrep.2020.107928)
The full ranking holds about 81,000 sequences; the median of “one-hybrid fitness for binding NBS DNA” is about -0.1, and the highest 2% start at about 0.36. Some of the results follow.

B1: Caulobacter ParB omega fusion; a variant is named by its letters at X, in order, B8GW30 (parent)
chain: MESVVVGEPGMSEGRRGLGRGLSALLGEVDAAPAQAPGEQLGGSREAPIEILQRNPDQPRRTFREEDLEDLSNSIREKGVLQPILVRPSPDTAGEYQIVAGERAWRAAQRAGLKTVPIMVRELDDLAVLEIGIIENVQRADLNVLEEALSYKVLMEKFERTQENIAQTIGKSXSHVANXMRLLXLPDEVQSYLVSGELTAXHARAIAAAADPVALAKQIIEGGLSVRETEALARKAPNLSAGKSKGGRPPRVKDTDTQALESDLSSVLGLDVSIDHRGSTGTLTITYATLEQLDDLCNRLTRGI

Variants of: B1
Experiment: one-hybrid fitness for binding NBS DNA (the Noc-binding site; scaled: cognate 1, non-cognate 0); higher = stronger binding
Conditions: with NBS DNA site
Summary of the method: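 On M9-minus-histidine containing 0.1 mM IPTG and 5 mM 3-AT, E. coli USO cells with a HIS3 reporter, site 19 bp from the promoter, grew 48 hours at 37°C to select Caulobacter ParB libraries randomised at four specificity codons. Plasmids from before and after were Illumina-sequenced, with three replicate libraries pooled and variants under 10 reads left out. Fitness is the log change in variant-to-wild-type read ratio, rescaled against cognate and non-cognate.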

Row | Variant | one-hybrid fitness for binding NBS DNA
1 | RTVW | ≤ 0.2
2 | PCFR | ≤ 0.2
3 | QAQD | ≤ 0.2
4 | LKYG | ≤ 0.2
5 | IHQD | ≤ 0.2
6 | HMLG | ≤ 0.2
7 | KVFF | ≤ 0.2
8 | NREL | ≤ 0.2
9 | LIHR | ≤ 0.2
10 | QPGC | ≤ 0.2
11 | PVSF | ≤ 0.2
12 | KRKI | 0.213
13 | WSCG | ≤ 0.2
14 | GRKN | ≤ 0.2
15 | DIIC | ≤ 0.2
16 | PCEF | ≤ 0.2
17 | DVRS | ≤ 0.2
18 | EFSM | ≤ 0.2
19 | GVPT | ≤ 0.2
20 | FTQM | ≤ 0.2
21 | YTPA | ≤ 0.2
22 | RCHQ | ≤ 0.2
23 | LMWW | ≤ 0.2
24 | LRYW | ≤ 0.2

Row | Variant | one-hybrid fitness for binding NBS DNA
25 | LRDI | ≤ 0.2
26 | NSMR | ≤ 0.2
27 | DLME | ≤ 0.2
28 | LKRC | ≤ 0.2
29 | VTAK | ≤ 0.2
30 | FQNT | ≤ 0.2
31 | QDKK | ≤ 0.2
32 | FRRS | ≤ 0.2
33 | QHEK | ≤ 0.2
34 | DVCG | ≤ 0.2
35 | EPNR | ≤ 0.2
36 | SRQN | ≤ 0.2
37 | MHKR | 0.206
38 | KQPS | ≤ 0.2
39 | CNVL | ≤ 0.2
40 | SHCD | ≤ 0.2
41 | IGRL | ≤ 0.2
42 | RFQR | 0.282
43 | SQTA | ≤ 0.2
44 | QMII | ≤ 0.2
45 | GFRP | ≤ 0.2
46 | FNPS | ≤ 0.2
47 | HYVT | ≤ 0.2
48 | LTIG | ≤ 0.2

Row | Variant | one-hybrid fitness for binding NBS DNA
49 | KNHC | ≤ 0.2
50 | HTLP | ≤ 0.2
51 | ILVA | ≤ 0.2
52 | ALEC | ≤ 0.2
53 | RVMP | ≤ 0.2
54 | KQCW | ≤ 0.2
55 | GPKK | ≤ 0.2
56 | ALKD | ≤ 0.2
57 | WSES | ≤ 0.2
58 | MVMT | ≤ 0.2
59 | YAGT | ≤ 0.2
60 | SIKT | ≤ 0.2
61 | PNNT | ≤ 0.2
62 | SNQL | ≤ 0.2
63 | QTRA | 0.712
64 | DGVG | ≤ 0.2
65 | EVTS | ≤ 0.2
66 | CYAL | ≤ 0.2
67 | ISFY | ≤ 0.2
68 | IVGG | ≤ 0.2
69 | SDHE | ≤ 0.2
70 | REYG | ≤ 0.2
71 | LCMM | ≤ 0.2
72 | TPMQ | ≤ 0.2

Row | Variant | one-hybrid fitness for binding NBS DNA
73 | VRQC | ≤ 0.2
74 | SLHQ | ≤ 0.2
75 | SSPF | ≤ 0.2
76 | LREC | ≤ 0.2
77 | RLDV | ≤ 0.2
78 | ILFR | ≤ 0.2
79 | EVRE | ≤ 0.2
80 | NRHS | ≤ 0.2
81 | ERNL | ≤ 0.2
82 | NTRD | ≤ 0.2
83 | PIDK | ≤ 0.2
84 | GAAC | ≤ 0.2
85 | KKWS | ≤ 0.2
86 | SALT | ≤ 0.2
87 | NCFW | ≤ 0.2
88 | EQGG | ≤ 0.2
89 | MEKM | ≤ 0.2
90 | VDGK | ≤ 0.2
91 | RYYT | 0.349
92 | QKNH | 0.286
93 | QDIV | ≤ 0.2
94 | HRNH | ≤ 0.2
95 | CVDS | ≤ 0.2
96 | FSKS | ≤ 0.2

Row | Variant | one-hybrid fitness for binding NBS DNA
97 | TRRA | 0.25
98 | SIKY | ≤ 0.2
99 | NAAD | ≤ 0.2
100 | VNCG | ≤ 0.2
101 | KRCS | 0.387
102 | RFGY | ≤ 0.2
103 | WPRA | ≤ 0.2
104 | PPHW | ≤ 0.2
105 | VHNM | ≤ 0.2
106 | QVWS | ≤ 0.2
107 | LYNL | ≤ 0.2
108 | TQHH | ≤ 0.2
109 | MVPK | ≤ 0.2
110 | LEAS | ≤ 0.2
111 | HTMF | ≤ 0.2
112 | SNMC | ≤ 0.2
113 | YGCT | ≤ 0.2
114 | EPRI | ≤ 0.2
115 | HRHY | ≤ 0.2
116 | PILL | ≤ 0.2
117 | GYKT | ≤ 0.2
118 | GPSV | ≤ 0.2
119 | SKME | ≤ 0.2
120 | RDKV | ≤ 0.2

Row | Variant | one-hybrid fitness for binding NBS DNA
121 | NASH | ≤ 0.2
122 | SSAA | ≤ 0.2
123 | HSPF | ≤ 0.2
124 | CFIV | ≤ 0.2
125 | VYTG | ≤ 0.2
126 | PVLV | ≤ 0.2
127 | NVDA | ≤ 0.2
128 | GQAL | ≤ 0.2
129 | TICR | ≤ 0.2
130 | AEHI | ≤ 0.2
131 | ERTC | ≤ 0.2
132 | YPMR | ≤ 0.2
133 | MMAR | ≤ 0.2
134 | QVRL | ≤ 0.2
135 | ATML | ≤ 0.2
136 | DHRM | ≤ 0.2
137 | TEWR | ≤ 0.2
138 | NPHG | ≤ 0.2
139 | DGWC | ≤ 0.2
140 | PILC | ≤ 0.2
141 | RAGE | ≤ 0.2
142 | RRAM | 0.306
143 | SCQG | ≤ 0.2
144 | ARPM | ≤ 0.2

Row | Variant | one-hybrid fitness for binding NBS DNA
145 | MTNS | ≤ 0.2
146 | QAHM | ≤ 0.2
147 | TWIC | ≤ 0.2
148 | YSKK | ≤ 0.2
149 | KIRV | ≤ 0.2
150 | KTTM | ≤ 0.2
151 | AVLS | ≤ 0.2
152 | KACL | ≤ 0.2
153 | FTDF | ≤ 0.2
154 | QPIE | ≤ 0.2
155 | SWVG | ≤ 0.2
156 | LQDT | ≤ 0.2
157 | QSID | ≤ 0.2
158 | MRLI | ≤ 0.2
159 | PCTH | ≤ 0.2
160 | NSHC | ≤ 0.2
161 | ITPG | ≤ 0.2
162 | HTAR | ≤ 0.2
163 | VLYG | ≤ 0.2
164 | QNPW | ≤ 0.2
165 | ATWW | ≤ 0.2
166 | QGEL | ≤ 0.2
167 | DPST | ≤ 0.2
168 | RHSD | ≤ 0.2

Row | Variant | one-hybrid fitness for binding NBS DNA
169 | HCNC | ≤ 0.2
170 | HGAT | ≤ 0.2
171 | LART | ≤ 0.2
172 | VWTD | ≤ 0.2
173 | NLIL | ≤ 0.2
174 | CMRV | ≤ 0.2
175 | AKTD | ≤ 0.2
176 | CWKV | ≤ 0.2
177 | SIRY | ≤ 0.2
178 | ACRD | ≤ 0.2
179 | QKLT | 0.464
180 | SEPW | ≤ 0.2
181 | GLKR | ≤ 0.2
182 | RFIG | ≤ 0.2
183 | WSGS | ≤ 0.2
184 | HTRE | ≤ 0.2
185 | RRYY | 0.349
186 | WRKT | ≤ 0.2
187 | ANHF | ≤ 0.2
188 | VVNS | ≤ 0.2
189 | RSVE | ≤ 0.2
190 | RQRF | ≤ 0.2
191 | VTKC | ≤ 0.2
192 | PKTG | ≤ 0.2

Row | Variant | one-hybrid fitness for binding NBS DNA
193 | CMCY | ≤ 0.2
194 | VEHD | ≤ 0.2
195 | RLKS | 0.554
196 | AFGT | ≤ 0.2
197 | YCLL | ≤ 0.2
198 | LRPN | ≤ 0.2
199 | WEGR | ≤ 0.2
200 | VLDL | ≤ 0.2
201 | SKKA | ≤ 0.2
202 | PMII | ≤ 0.2
203 | TFQR | ≤ 0.2
204 | MNVS | ≤ 0.2
205 | HDLW | ≤ 0.2
206 | TSSM | ≤ 0.2
207 | PAVN | ≤ 0.2
208 | SKHC | ≤ 0.2
209 | RSEQ | ≤ 0.2
210 | GYKF | ≤ 0.2
211 | NIGI | ≤ 0.2
212 | KMIR | ≤ 0.2
213 | AAAC | ≤ 0.2
214 | DNFS | ≤ 0.2
215 | RLSD | ≤ 0.2
216 | HHIA | ≤ 0.2

Row | Variant | one-hybrid fitness for binding NBS DNA
217 | PRRD | ≤ 0.2
218 | TVCM | ≤ 0.2
219 | KNMC | ≤ 0.2
220 | RFMV | ≤ 0.2
221 | FPIG | ≤ 0.2
222 | EKVR | ≤ 0.2
223 | QAAS | 0.304
224 | SFHG | ≤ 0.2
225 | IGNF | ≤ 0.2
226 | ILDY | ≤ 0.2
227 | NRFG | ≤ 0.2
228 | PDCY | ≤ 0.2
229 | QWCR | 0.208
230 | AACF | ≤ 0.2
231 | QQRE | 0.332
232 | TLQC | ≤ 0.2
233 | VFPI | ≤ 0.2
234 | PATR | ≤ 0.2
235 | AMAL | ≤ 0.2
236 | RTSI | ≤ 0.2
237 | KRHV | ≤ 0.2
238 | TIHL | ≤ 0.2
239 | FAPF | ≤ 0.2
240 | NNVR | ≤ 0.2

Row | Variant | one-hybrid fitness for binding NBS DNA
241 | SSVQ | ≤ 0.2
242 | DQDV | ≤ 0.2
243 | DTNN | ≤ 0.2
244 | WAAC | ≤ 0.2
245 | QSQM | ≤ 0.2
246 | NKVV | ≤ 0.2
247 | FQLM | ≤ 0.2
248 | NGMT | ≤ 0.2
249 | QPKC | ≤ 0.2
250 | TMVV | ≤ 0.2
251 | NAVL | ≤ 0.2
252 | CITK | ≤ 0.2
253 | PWTK | ≤ 0.2
254 | EFLG | ≤ 0.2
255 | QTQM | 0.22
256 | VGQS | ≤ 0.2
257 | LGCR | ≤ 0.2
258 | SWLK | ≤ 0.2
259 | QLHH | ≤ 0.2
260 | KIPM | ≤ 0.2
261 | KTNC | ≤ 0.2
262 | TYMG | ≤ 0.2
263 | RVML | ≤ 0.2
264 | NAPG | ≤ 0.2

Row | Variant | one-hybrid fitness for binding NBS DNA
265 | DIWC | ≤ 0.2
266 | SPKD | ≤ 0.2
267 | PKDL | ≤ 0.2
268 | QRYQ | 0.35
269 | NMNT | ≤ 0.2
270 | MSER | ≤ 0.2
271 | PHVT | ≤ 0.2
272 | GADS | ≤ 0.2
273 | YELE | ≤ 0.2
274 | TPYS | ≤ 0.2
275 | EGQW | ≤ 0.2
276 | WNVY | ≤ 0.2
277 | LVER | ≤ 0.2
278 | KLVT | ≤ 0.2
279 | ASDT | ≤ 0.2
280 | PIRD | ≤ 0.2
281 | EMIY | ≤ 0.2
282 | TLNL | ≤ 0.2
283 | HALI | ≤ 0.2
284 | LKKE | ≤ 0.2
285 | VTDV | ≤ 0.2
286 | PTRT | ≤ 0.2
287 | YPLW | ≤ 0.2
288 | SFWS | ≤ 0.2

Row | Variant | one-hybrid fitness for binding NBS DNA
289 | TPMG | ≤ 0.2
290 | SKLW | ≤ 0.2
291 | CAER | ≤ 0.2
292 | SQDG | ≤ 0.2
293 | QSMM | ≤ 0.2
294 | DYTG | ≤ 0.2
295 | KKNV | ≤ 0.2
296 | HIGS | ≤ 0.2
297 | PCQD | ≤ 0.2
298 | STSI | ≤ 0.2
299 | FRSH | ≤ 0.2
300 | IPED | ≤ 0.2
301 | KCIR | ≤ 0.2
302 | PVLL | ≤ 0.2
303 | SWSW | ≤ 0.2
304 | RVQQ | ≤ 0.2
305 | KRIM | ≤ 0.2
306 | WFVR | ≤ 0.2
